Laboratory results published in PMC6555819.
The other results are listed elsewhere or left out.

Molecular target: T1, LXRa (Homo sapiens) (UniProt Q13133)
T1 sequence: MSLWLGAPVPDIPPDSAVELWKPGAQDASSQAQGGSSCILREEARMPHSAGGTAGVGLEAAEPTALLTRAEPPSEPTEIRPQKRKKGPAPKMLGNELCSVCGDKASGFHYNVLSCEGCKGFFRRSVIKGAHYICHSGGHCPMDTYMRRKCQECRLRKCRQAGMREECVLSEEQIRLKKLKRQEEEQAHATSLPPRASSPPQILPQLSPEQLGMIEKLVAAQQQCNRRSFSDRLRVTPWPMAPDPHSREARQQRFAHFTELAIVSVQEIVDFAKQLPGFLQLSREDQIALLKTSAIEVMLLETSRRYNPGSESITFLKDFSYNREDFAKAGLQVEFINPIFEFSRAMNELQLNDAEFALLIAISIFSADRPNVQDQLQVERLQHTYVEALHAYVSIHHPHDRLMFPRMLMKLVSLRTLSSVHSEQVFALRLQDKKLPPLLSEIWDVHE
Details: 270 nM, no RXRa, PBS pH 7.4, 2% milk, 0.02% Triton X-100, 1 mM DTT, BSA, 0.4 mg/ml salmon testes DNA; double strand, one strand shown

| Sequence | binding signal (PBM z-score against 500 random probes) |
| --- | --- |
| GCAAGCCAGGACTGGACTTCGGACCACCAGTTCCAAGCGATTGACAGCGTAGAATGAAGG | -0.65 |
| GCAGGTAATGTATTCACAGGTTCTGGGACGTCATTGGCGATTGACAGCGTAGAATGAAGG | -0.15 |
| GCGAAGAAGAAGAAGAAGGAGGAGGAGGAGGAGGAGGCGATTGACAGCGTAGAATGAAGG | 0.21 |
| GCAGCGCACCAGCATGGCACATGTATACATATGTAAGCGATTGACAGCGTAGAATGAAGG | -0.57 |
| GCGGTACTCAGTATGTGAAGAATCATGTTGAGGCAGGCGATTGACAGCGTAGAATGAAGG | -0.1 |
| GCAACAGGCAGCTGGCTGTGCACGGCAACCATGGGCGCGATTGACAGCGTAGAATGAAGG | -1.21 |
| GCTGGCAATGGCTGGACCACTCCAAGAACTGTGTGGGCGATTGACAGCGTAGAATGAAGG | -0.77 |
| GCACTTAGAGCCCAGGAGCTTGAGGTCGCAGCTACTGCGATTGACAGCGTAGAATGAAGG | -0.52 |
| GCTCCCTGCCCAGTTCTGTGCAGGGTGTGCGTGTCTGCGATTGACAGCGTAGAATGAAGG | -0.94 |
| GCCAAGATGAATCAGAAGCATGCCATCCGAATTCCAGCGATTGACAGCGTAGAATGAAGG | -0.2 |
| GCGCCTCTGGAATGTAAACTCCAGCCTGGCATGTATGCGATTGACAGCGTAGAATGAAGG | -0.43 |
| GCCACATCTGTAATCCCAGCACTTTGGGAGGCCAAGGCGATTGACAGCGTAGAATGAAGG | 0.5 |
| GCGAGCCACCACGCCTGGCCTCTCCGATCTCCAACTGCGATTGACAGCGTAGAATGAAGG | 0.03 |
| GCGTGCGAGGGAAGGAGCATGCTTCATTGATCCCATGCGATTGACAGCGTAGAATGAAGG | -0.82 |
| GCTCTCTGGTACCAGTGAAGAAGACGTCCAGGTGGCGCGATTGACAGCGTAGAATGAAGG | -0.69 |
| GCTGTTCTTACTGAGGCGTTTGCTGCCTAGCTCCCTGCGATTGACAGCGTAGAATGAAGG | -0.24 |
| GCTGGGCACATGAGGGATGGGAGTTGATCTCTGTGGGCGATTGACAGCGTAGAATGAAGG | -0.29 |
| GCGCCTGTGACTTAGAATGCCCTACCTCCTGGGAATGCGATTGACAGCGTAGAATGAAGG | 0.1 |
| GCGAGGACAGAGTAGATCAACCTTTCCTACCTCTAAGCGATTGACAGCGTAGAATGAAGG | -0.34 |
| GCTTACTCTGTTGCACTTTGGAAGAAACAAATGTAAGCGATTGACAGCGTAGAATGAAGG | -0.03 |
| GCGTTGATGAATCATGACCCACACTCAACCACCAGCGCGATTGACAGCGTAGAATGAAGG | 0.38 |
| GCATTGAGCAGGTGTTGATTACAAATGAGATGTTTCGCGATTGACAGCGTAGAATGAAGG | 0.29 |
| GCTGTGCCTTCTGCACAAGGTAGGTCTACATCCACTGCGATTGACAGCGTAGAATGAAGG | -0.39 |
| GCGCCCAGTAGTTTGAGACCAGCCTGGACAACATGGGCGATTGACAGCGTAGAATGAAGG | -0.48 |
| GCGCTACTTGGGAGGCTGAGATGGTAGAATCACTTGGCGATTGACAGCGTAGAATGAAGG | -0.61 |

Molecular target: T2, LXRb (Homo sapiens) (UniProt P55055)
T2 sequence: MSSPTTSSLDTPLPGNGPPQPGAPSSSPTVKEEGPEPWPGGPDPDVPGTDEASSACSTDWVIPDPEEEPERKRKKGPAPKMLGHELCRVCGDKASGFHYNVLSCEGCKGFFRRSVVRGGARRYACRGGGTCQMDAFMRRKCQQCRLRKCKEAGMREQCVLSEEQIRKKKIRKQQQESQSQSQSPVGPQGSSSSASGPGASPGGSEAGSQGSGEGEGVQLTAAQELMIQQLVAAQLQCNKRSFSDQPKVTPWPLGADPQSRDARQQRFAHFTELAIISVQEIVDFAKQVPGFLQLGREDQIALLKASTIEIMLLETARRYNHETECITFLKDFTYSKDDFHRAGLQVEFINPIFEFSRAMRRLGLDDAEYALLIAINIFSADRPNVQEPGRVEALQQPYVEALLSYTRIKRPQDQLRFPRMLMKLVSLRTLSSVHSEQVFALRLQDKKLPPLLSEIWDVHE
Details: 270 nM, no RXRa, PBS pH 7.4, 2% milk, 0.02% Triton X-100, 1 mM DTT, BSA, 0.4 mg/ml salmon testes DNA; double strand, one strand shown

| Sequence | binding signal (PBM z-score against 500 random probes) |
| --- | --- |
| GCTTTCAAGGCAGTAAGAGTTTGCTGTGCATCAGCTGCGATTGACAGCGTAGAATGAAGG | -0.92 |
| GCCCGAGTAGGTTAGGAGGGGGCATTCAGTGCGAATGCGATTGACAGCGTAGAATGAAGG | 10.5 |
| GCGGTGGCACACGCATGGAATCCCAGCGCTTTGGGAGCGATTGACAGCGTAGAATGAAGG | -1.24 |
| GCCACCGTGTTAGCCAGGATGGTCTCGATCTCCTGAGCGATTGACAGCGTAGAATGAAGG | -0.65 |
| GCCCGAGTAGGTTACGAGGAGGCATTCAGTGCGAATGCGATTGACAGCGTAGAATGAAGG | -0.7 |
| GCCTATGTAGGTTAAGGGGGGCATTCAGTTTGAAAGGCGATTGACAGCGTAGAATGAAGG | 14.1 |
| GCTCGAGTAGGTTACGGGGGGATTCAGGGATGAAGAGCGATTGACAGCGTAGAATGAAGG | 14.4 |
| GCGAAGGAAGGAAGGAAGGAAGGAAGGAAGGAAGGCGCGATTGACAGCGTAGAATGAAGG | -0.35 |
| GCAAACACAAAGTTTGGGCTGCCTTCTCTAGAGATTGCGATTGACAGCGTAGAATGAAGG | 0.13 |
| GCCCAATGCAAGGGCAGCAAGGGCAGGACCAGTGCAGCGATTGACAGCGTAGAATGAAGG | -1 |
| GCTCTAGTAGGTTACGGGGGCATTCAGGGATGAAGAGCGATTGACAGCGTAGAATGAAGG | 12.2 |
| GCCCGAGTAGGTTACGGGGGGGCATTCAGTGCGAATGCGATTGACAGCGTAGAATGAAGG | 14.1 |
| GCCTATGTGGGTTAAGGGGGTCATTCAGTTTGAAAGGCGATTGACAGCGTAGAATGAAGG | 10.4 |
| GCATTTGAGATCTCAGTTTCTGCATACTGAATCACCGCGATTGACAGCGTAGAATGAAGG | 0.37 |

Molecular target: PPARg (Homo sapiens) (UniProt P37231)
UniProt P37231, sequence (P37231 29-505): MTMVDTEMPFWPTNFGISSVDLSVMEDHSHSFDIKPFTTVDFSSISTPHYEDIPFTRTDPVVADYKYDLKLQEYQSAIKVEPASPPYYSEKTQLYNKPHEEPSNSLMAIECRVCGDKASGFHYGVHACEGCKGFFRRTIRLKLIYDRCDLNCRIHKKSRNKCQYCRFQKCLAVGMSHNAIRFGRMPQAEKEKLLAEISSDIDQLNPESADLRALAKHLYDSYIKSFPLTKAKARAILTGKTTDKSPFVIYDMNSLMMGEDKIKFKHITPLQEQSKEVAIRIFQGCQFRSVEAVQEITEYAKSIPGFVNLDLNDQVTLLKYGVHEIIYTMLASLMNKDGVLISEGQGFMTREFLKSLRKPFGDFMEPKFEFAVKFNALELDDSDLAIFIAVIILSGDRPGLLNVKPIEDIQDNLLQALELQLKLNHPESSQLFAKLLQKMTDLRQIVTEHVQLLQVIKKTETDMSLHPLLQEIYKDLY
Details: 180 nM, no RXRa, PBS pH 7.4, 2% milk, 0.02% Triton X-100, 1 mM DTT, BSA, 0.4 mg/ml salmon testes DNA; double strand, one strand shown

| Sequence | binding signal (PBM z-score against 500 random probes) |
| --- | --- |
| GCAACAGGCAGCTGGCTGTGCACGGCAACCATGGGCGCGATTGACAGCGTAGAATGAAGG | -1.44 |
| GCACTTAGAGCCCAGGAGCTTGAGGTCGCAGCTACTGCGATTGACAGCGTAGAATGAAGG | -0.7 |
| GCCAAGATGAATCAGAAGCATGCCATCCGAATTCCAGCGATTGACAGCGTAGAATGAAGG | -0.47 |
| GCGAGCCACCACGCCTGGCCTCTCCGATCTCCAACTGCGATTGACAGCGTAGAATGAAGG | -0.22 |
